The supplement of paper PMC8728848
This is one part of the list.

Experiments:
Experiment in all cases: glycan array binding signal (z-score within array); higher = stronger binding
Conditions in all cases: glycan notation: IUPAC condensed, linker removed
[1] = target: Gal(b1-3)GlcNAc(b1-6)GalNAc
How it was run: (§1)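 The binding signal is a Z-score computed within each array. Data were drawn from 3228 arrays in the Consortium for Functional Glycomics database, restricted to those with a known protein sequence. Scores were averaged over arrays of the same protein sequence at different concentrations or buffers, and over linkers, and negative values can be taken as non-binding.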

[2] = target: Gal(b1-3)GlcNAc(b1-6)[Gal(b1-3)]GalNAc
How it was run: as §1

Gal(b1-3)GlcNAc6S = target: Gal(b1-3)GlcNAc6S
How it was run: as §1

[3] = target: Gal(b1-3)[Fuc(a1-4)]GlcNAc
How it was run: as §1

[4] = target: Gal(b1-3)[Fuc(a1-4)]GlcNAc(b1-2)Man
How it was run: as §1

[5] = target: Gal(b1-3)[Fuc(a1-4)]GlcNAc(b1-2)Man(a1-3)[Gal(b1-3)[Fuc(a1-4)]GlcNAc(b1-2)Man(a1-6)]Man(b1-4)GlcNAc(b1-4)[Fuc(a1-6)]GlcNAc
How it was run: as §1

[6] = target: Gal(b1-3)[Fuc(a1-4)]GlcNAc(b1-3)Gal(b1-3)[Fuc(a1-4)]GlcNAc
How it was run: as §1

[7] = target: Gal(b1-3)[Fuc(a1-4)]GlcNAc(b1-3)Gal(b1-4)[Fuc(a1-3)]GlcNAc
How it was run: as §1

[8] = target: Gal(b1-3)[Fuc(a1-4)]GlcNAc(b1-6)GalNAc
How it was run: as §1

[9] = target: Gal(b1-3)[GlcNAc(b1-6)]GalNAc
How it was run: as §1

[10] = target: Gal(b1-3)[Neu5Ac(a2-6)]GalNAc
How it was run: as §1

[11] = target: Gal(b1-3)[Neu5Ac(a2-6)]GlcNAc(b1-4)Gal(b1-4)Glc
How it was run: as §1

[12] = target: Gal(b1-3)[Neu5Ac(b2-6)]GalNAc
How it was run: as §1

Gal(b1-4)Gal = target: Gal(b1-4)Gal
How it was run: as §1

[13] = target: Gal(b1-4)GalNAc(a1-3)[Fuc(a1-2)]Gal(b1-4)GlcNAc
How it was run: as §1

[14] = target: Gal(b1-4)GalNAc(b1-3)[Fuc(a1-2)]Gal(b1-4)GlcNAc
How it was run: as §1

Gal(b1-4)Glc = target: Gal(b1-4)Glc
How it was run: as §1

Gal(b1-4)Glc6S = target: Gal(b1-4)Glc6S
How it was run: as §1

Gal(b1-4)GlcNAc = target: Gal(b1-4)GlcNAc
How it was run: as §1

[15] = target: Gal(b1-4)GlcNAc(a1-6)Gal(b1-4)GlcNAc
How it was run: as §1

Gal(b1-4)GlcNAc(b1-2)Man = target: Gal(b1-4)GlcNAc(b1-2)Man
How it was run: as §1

[16] = target: Gal(b1-4)GlcNAc(b1-2)Man(a1-3)Man(b1-4)GlcNAc(b1-4)GlcNAc
How it was run: as §1

[17] = target: Gal(b1-4)GlcNAc(b1-2)Man(a1-3)[Gal(b1-4)GlcNAc(b1-2)Man(a1-6)]Man(b1-4)GlcNAc(b1-4)GlcNAc
How it was run: as §1

[18] = target: Gal(b1-4)GlcNAc(b1-2)Man(a1-3)[Gal(b1-4)GlcNAc(b1-2)Man(a1-6)]Man(b1-4)GlcNAc(b1-4)[Fuc(a1-6)]GlcNAc
How it was run: as §1

[19] = target: Gal(b1-4)GlcNAc(b1-2)Man(a1-3)[Gal(b1-4)GlcNAc(b1-2)Man(a1-6)][Gal(b1-4)GlcNAc(b1-4)]Man(b1-4)GlcNAc(b1-4)[Fuc(a1-6)]GlcNAc
How it was run: as §1

[20] = target: Gal(b1-4)GlcNAc(b1-2)Man(a1-3)[Gal(b1-4)GlcNAc(b1-2)Man(a1-6)][GlcNAc(b1-4)]Man(b1-4)GlcNAc(b1-4)[Fuc(a1-6)]GlcNAc
How it was run: as §1

[21] = target: Gal(b1-4)GlcNAc(b1-2)Man(a1-3)[GlcNAc(b1-2)Man(a1-6)]Man(b1-4)GlcNAc(b1-4)GlcNAc
How it was run: as §1

[22] = target: Gal(b1-4)GlcNAc(b1-2)Man(a1-3)[GlcNAc(b1-4)][Gal(b1-4)GlcNAc(b1-2)Man(a1-6)]Man(b1-4)GlcNAc(b1-4)GlcNAc
How it was run: as §1

[23] = target: Gal(b1-4)GlcNAc(b1-2)Man(a1-3)[Man(a1-6)]Man(b1-4)GlcNAc(b1-4)GlcNAc
How it was run: as §1

[24] = target: Gal(b1-4)GlcNAc(b1-2)Man(a1-6)Man(b1-4)GlcNAc(b1-4)GlcNAc
How it was run: as §1

[25] = target: Gal(b1-4)GlcNAc(b1-2)Man(a1-6)[GlcNAc(b1-2)Man(a1-3)]Man(b1-4)GlcNAc(b1-4)GlcNAc
How it was run: as §1

[26] = target: Gal(b1-4)GlcNAc(b1-2)Man(a1-6)[Man(a1-3)]Man(b1-4)GlcNAc(b1-4)GlcNAc
How it was run: as §1

[27] = target: Gal(b1-4)GlcNAc(b1-2)[Gal(b1-4)GlcNAc(b1-4)]Man(a1-3)[Gal(b1-4)GlcNAc(b1-2)Man(a1-6)]Man(b1-4)GlcNAc(b1-4)GlcNAc
How it was run: as §1

[28] = target: Gal(b1-4)GlcNAc(b1-2)[Gal(b1-4)GlcNAc(b1-4)]Man(a1-3)[Gal(b1-4)GlcNAc(b1-2)[Gal(b1-4)GlcNAc(b1-6)]Man(a1-6)]Man(b1-4)GlcNAc(b1-4)GlcNAc
How it was run: as §1

[29] = target: Gal(b1-4)GlcNAc(b1-2)[Gal(b1-4)GlcNAc(b1-4)]Man(a1-3)[GlcNAc(b1-4)][Gal(b1-4)GlcNAc(b1-2)Man(a1-6)]Man(b1-4)GlcNAc(b1-4)GlcNAc
How it was run: as §1

[30] = target: Gal(b1-4)GlcNAc(b1-2)[Gal(b1-4)GlcNAc(b1-4)]Man(a1-3)[GlcNAc(b1-4)][Gal(b1-4)GlcNAc(b1-2)[Gal(b1-4)GlcNAc(b1-6)]Man(a1-6)]Man(b1-4)GlcNAc(b1-4)GlcNAc
How it was run: as §1

[31] = target: Gal(b1-4)GlcNAc(b1-2)[Gal(b1-4)GlcNAc(b1-6)]Man(a1-6)[Gal(b1-4)GlcNAc(b1-2)Man(a1-3)]Man(b1-4)GlcNAc(b1-4)GlcNAc
How it was run: as §1

[32] = target: Gal(b1-4)GlcNAc(b1-2)[Gal(b1-4)GlcNAc(b1-6)]Man(a1-6)[Gal(b1-4)GlcNAc(b1-2)Man(a1-3)]Man(b1-4)GlcNAc(b1-4)[Fuc(a1-6)]GlcNAc
How it was run: as §1

[33] = target: Gal(b1-4)GlcNAc(b1-2)[Gal(b1-4)GlcNAc(b1-6)]Man(a1-6)[GlcNAc(b1-4)][Gal(b1-4)GlcNAc(b1-2)Man(a1-3)]Man(b1-4)GlcNAc(b1-4)GlcNAc
How it was run: as §1

[34] = target: Gal(b1-4)GlcNAc(b1-2)[Gal(b1-4)GlcNAc(b1-6)]Man(a1-6)[GlcNAc(b1-4)][Gal(b1-4)GlcNAc(b1-2)[Gal(b1-4)GlcNAc(b1-4)]Man(a1-3)]Man(b1-4)GlcNAc(b1-4)[Fuc(a1-6)]GlcNAc
How it was run: as §1

[35] = target: Gal(b1-4)GlcNAc(b1-3)Gal(b1-3)GalNAc
How it was run: as §1

[36] = target: Gal(b1-4)GlcNAc(b1-3)Gal(b1-3)GlcNAc
How it was run: as §1

[37] = target: Gal(b1-4)GlcNAc(b1-3)Gal(b1-4)Glc
How it was run: as §1

[38] = target: Gal(b1-4)GlcNAc(b1-3)Gal(b1-4)GlcNAc
How it was run: as §1

[39] = target: Gal(b1-4)GlcNAc(b1-3)Gal(b1-4)GlcNAc(b1-2)Man(a1-3)[Gal(b1-4)GlcNAc(b1-3)Gal(b1-4)GlcNAc(b1-2)Man(a1-6)]Man(b1-4)GlcNAc(b1-4)GlcNAc
How it was run: as §1

B1: LgFlo1 (Saccharomyces pastorianus), B3IUA8 (protein)
chain: SGSTQACLPVGSRKNGMNVNFYKYSLQDSTTYSDPQYMAYKYSDTKKLGSVSGQTHLSIYYGPNTAFWNTASWSSDLFGFYTTPTNVTVEMTGYFLPPQTGSYTFKFATVDDSAILSVGGSIAFECCAQEQPPITSTDFTINGIKPWDAATPTDIKGSTYMYAGYYYPIKIVYSNAKALARLPVSVVLPDGTEVNDDFEGYVYSFDDDLSQSNCTIPDPSKHTTS
For B1, the “glycan array binding signal (z-score)” value [1] was -0.244, the “glycan array binding signal (z-score)” value [2] was -0.152 and the “glycan array binding signal (z-score)” value (Gal(b1-3)GlcNAc6S) was 0.936. The “glycan array binding signal (z-score)” value [3] was -0.345, the “glycan array binding signal (z-score)” value [4] was 1.25 and the “glycan array binding signal (z-score)” value [5] was 1.61. For the same binder, the “glycan array binding signal (z-score)” value [6] was 0.079, the “glycan array binding signal (z-score)” value [7] was -0.366 and the “glycan array binding signal (z-score)” value [8] was 0.043. The “glycan array binding signal (z-score)” value [9] was -0.193, the “glycan array binding signal (z-score)” value [10] was 0.292 and the “glycan array binding signal (z-score)” value [11] was -0.149. The “glycan array binding signal (z-score)” value [12] was -0.151, the “glycan array binding signal (z-score)” value (Gal(b1-4)Gal) was 0.893 and the “glycan array binding signal (z-score)” value [13] was -0.29. For the same binder, the “glycan array binding signal (z-score)” value [14] was -0.275, the “glycan array binding signal (z-score)” value (Gal(b1-4)Glc) was -0.451 and the “glycan array binding signal (z-score)” value (Gal(b1-4)Glc6S) was -0.025. The “glycan array binding signal (z-score)” value (Gal(b1-4)GlcNAc) was -0.354, the “glycan array binding signal (z-score)” value [15] was -0.339 and the “glycan array binding signal (z-score)” value (Gal(b1-4)GlcNAc(b1-2)Man) was -0.11. The “glycan array binding signal (z-score)” value [16] was -0.471, the “glycan array binding signal (z-score)” value [17] was -0.432 and the “glycan array binding signal (z-score)” value [18] was 0.079. The “glycan array binding signal (z-score)” value [19] was -0.422, the “glycan array binding signal (z-score)” value [20] was -0.37 and the “glycan array binding signal (z-score)” value [21] was -0.377. For the same binder, the “glycan array binding signal (z-score)” value [22] was -0.121, the “glycan array binding signal (z-score)” value [23] was -0.271 and the “glycan array binding signal (z-score)” value [24] was -0.462. For the same binder, the “glycan array binding signal (z-score)” value [25] was -0.333, the “glycan array binding signal (z-score)” value [26] was -0.019 and the “glycan array binding signal (z-score)” value [27] was -0.226. The “glycan array binding signal (z-score)” value [28] was -0.165, the “glycan array binding signal (z-score)” value [29] was -0.016 and the “glycan array binding signal (z-score)” value [30] was -0.114. For the same binder, the “glycan array binding signal (z-score)” value [31] was 0.549, the “glycan array binding signal (z-score)” value [32] was 0.56 and the “glycan array binding signal (z-score)” value [33] was -0.078. For the same binder, the “glycan array binding signal (z-score)” value [34] was -0.236, the “glycan array binding signal (z-score)” value [35] was -0.353 and the “glycan array binding signal (z-score)” value [36] was -0.039. For the same binder, the “glycan array binding signal (z-score)” value [37] was -0.196, the “glycan array binding signal (z-score)” value [38] was -0.291 and the “glycan array binding signal (z-score)” value [39] was 0.592.
